Test results published in patent publication US20260015418A1 (ABL BIO, published 2026).

Tests used:
[1] = target: T1, human ROR1-Fc protein (Sino Biological, 13968-H02H1) (human, UniProt Q01973 fragment); assay: DACE ELISA (ROR1-Fc coated, 4-1BB-His detection); 3 days in human serum at 37°C
T1 construct: Bought protein; also called human ROR1 protein (13968-H02H1, Fc tag)
Method: (§1) A 96-well microtiter plate (NUNC, 446612) was coated overnight at 4° C. with human ROR1-Fc protein (Sinobio, 13968-H02H1) at 100 ng/well in PBS. The plate was then incubated with 1% BSA buffer (1×PBS, 1% (v/v) BSA) at 200 μl/well at 37° C. for 2 hours to block non-specific binding. Thereafter, the blocking solution was discarded and fourfold dilutions of each bispecific antibody test material (starting from 100 nM) were added to the wells. The plate was incubated at 37° C. for 2 hours and then washed with PBS-T (1×PBS/0.05% (v/v) Tween-20). Subsequently, human 4-1BB-His protein (Sinobio, 10041-H08H) dissolved in 1% BSA buffer was added at 100 ng/well and incubated at 37° C. for 1 hour. After washing with PBS-T, the plate was incubated with anti-His HRP (Roche, Cat: 11965085001) at 37° C. for 1 hour. After washing, color development was performed with TMB (tetramethylbenzidine, Sigma, T0440) and the color development was stopped with 0.5M sulfuric acid (Samchun Chemicals, S1410), and the absorbance (OD) at 450-650 nm was read using a spectrophotometer. Four-parameter logistic curve analysis was performed using GraphPad software.

[2] = target: T1, human ROR1-Fc protein (Sino Biological, …); assay: DACE ELISA (ROR1-Fc coated, 4-1BB-His detection); 14 days in monkey serum at 37°C
Method: as §1

[3] = target: T1, human ROR1-Fc protein (Sino Biological, …); assay: SPR Biacore T200, ROR1-Fc amine-coupled on CM5, antibody as analyte, bivalent analyte model (Kd1)
Method: (§2) The binding affinity of both BA6M11(WT)x1A10M12 and BA6M11 (NA)x1A10M12 clones, which are anti-ROR1/anti-4-1BB bispecific antibodies comprising BA6M11 clone, was assessed using surface plasmon resonance (SPR). The antigens used for this assessment were human ROR1 protein (13968-H02H1, Fc tag) from Sino Biological and human 4-1BB protein (9220-4B-100, his tag) from R&D Systems. The measurements were conducted on a Biacore T200 instrument (Cytiva).
(§3) The CM5 chip (Cytiva, BR100530) was coated with a 5 μg/mL human ROR1 protein dilution in Acetate 4.0 (Cytiva, BR100349) using the amine coupling method (Cytiva, BR100050) to achieve a surface density of about 80 RU. […] These diluted antibody samples were then flowed over the human ROR1 protein-immobilized CM5 chip for approximately 60 seconds to conjugate the sample to the antigen, followed by flowing HBS-EP buffer (1×) over the sample-antigen complex for 180 seconds to dissociate the sample from the antigen. […] Binding affinity was analyzed using the bivalent analyte model to derive the primary association rate constant (Ka1) and primary dissociation rate constant (Kd1). The equilibrium dissociation constant (KD) was calculated by dividing the primary dissociation rate constant by the primary association rate constant, and this value was used to represent the final binding affinity.

[4] = target: T1, human ROR1-Fc protein (Sino Biological, …); assay: SPR Biacore T200, ROR1-Fc amine-coupled on CM5, antibody as analyte, bivalent analyte model (Kd1/Ka1)
Method: as §2, §3

T1 sequence (Q01973 30-403 limits assumed): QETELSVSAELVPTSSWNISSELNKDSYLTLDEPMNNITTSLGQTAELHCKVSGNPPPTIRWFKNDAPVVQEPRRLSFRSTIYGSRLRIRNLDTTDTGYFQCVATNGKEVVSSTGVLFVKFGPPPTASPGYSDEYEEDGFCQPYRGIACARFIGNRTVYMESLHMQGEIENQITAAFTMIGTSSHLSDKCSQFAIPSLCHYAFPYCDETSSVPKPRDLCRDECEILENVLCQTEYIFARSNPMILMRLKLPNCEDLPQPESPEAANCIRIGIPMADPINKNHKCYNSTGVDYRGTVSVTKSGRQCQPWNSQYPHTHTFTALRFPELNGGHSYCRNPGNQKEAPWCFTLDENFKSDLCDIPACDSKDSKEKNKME

- EC50 [1]: 0.22 nM
- EC50 [2]: 0.273 nM
- koff [3]: 0.00152 s⁻¹
- Kd [4]: 6.65 nM
B1: BA6M11(NA)x1A10M12 anti-ROR1/anti-4-1BB bispecific antibody (bispecific antibody, human IgG1, lambda)
heavy: EVQLLESGGGLVQPGGSLRLSCAASGFTFSNYDMSWVRQAPGKGLEWVSAIYHSGSSKYYADSVKGRFTISRDNSKNTLYLQMNSLRAEDTAVYYCARGGSGAWDTGFDYWGQGTLVTVSSASTKGPSVFPLAPSSKSTSGGTAALGCLVKDYFPEPVTVSWNSGALTSGVHTFPAVLQSSGLYSLSSVVTVPSSSLGTQTYICNVNHKPSNTKVDKKV[human IgG1 Fc with changes not shown]GSGSGSGSGSGSGSGSGSQSVLTQPPSASGTPGQRVTISCSGSSSNIGNNYVTWYQQLPGTAPKLLIYADSHRPSGVPDRFSGSKSGTSASLAISGLRSEDEADYYCATWDYSLSGYVFGCGTKLTVLGGGGSGGGGSGGGGSGGGGSEVQLLESGGGLVQPGGSLRLSCAASGFTFSSYDMSWVRQAPGKCLEWVSWISYSGGSIYYADSVKGRFTISRDNSKNTLYLQMNSLRAEDTAVYYCARDAQRNSMREFDYWGQGTLVTVSS
light: QSVLTQPPSASGTPGQRVTISCSGSSSNIGSNDVSWYQQLPGTAPKLLIYYENNRPSGVPDRFSGSKSGTSASLAISGLRSEDEADYYCGAWDDSLSGYVFGGGTKLTVLGQPKAAPSVTLFPPSSEELQANKATLVCLISDFYPGAVTVAWKADSSPVKAGVETTTPSKQSNNKYAASSYLSLTPEQWKSHRSYSCQVTHEGSTVEKTVAPAECS
notes: As BA6M11(WT)x1A10M12 but with the N297A (NA) mutation in the Fc; also called BA6M11(NA) × 1A10M12
